According to the supplement of paper PMC8728848:
The list shows a part of the results.

How the values were obtained:
Experiment in all cases: glycan array binding signal (z-score within array); higher = stronger binding
Details in all cases: glycan notation: IUPAC condensed, linker removed
[1] = molecular target: Fuc(a1-2)[GalNAc(a1-3)]Gal(b1-4)GlcNAc(b1-3)GalNAc
In short: (§1)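 The Consortium for Functional Glycomics database supplied 3228 glycan arrays, of which those lacking an available protein sequence were dropped. The binding signal, a within-array Z-score, was averaged across arrays of the same protein sequence and across linkers. Negative scores can be read as non-binding.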

[2] = molecular target: Fuc(a1-2)[GalNAc(a1-3)]Gal(b1-4)GlcNAc(b1-3)[Fuc(a1-2)[GalNAc(a1-3)]Gal(b1-4)GlcNAc(b1-6)]GalNAc
In short: as §1

[3] = molecular target: Fuc(a1-2)[GalNAc(a1-3)]Gal(b1-4)GlcNAc(b1-6)GalNAc
In short: as §1

[4] = molecular target: Fuc(a1-2)[GalNAc(a1-3)]Gal(b1-4)[Fuc(a1-3)]GlcNAc
In short: as §1

[5] = molecular target: Fuc(a1-2)[GalNAc(a1-3)]Gal(b1-4)[Fuc(a1-3)]GlcNAc(b1-3)GalNAc
In short: as §1

[6] = molecular target: Fuc(a1-2)[GalNAc(a1-4)]Gal(b1-4)GlcNAc
In short: as §1

[7] = molecular target: Fuc(a1-2)[GalNAc(b1-3)]Gal
In short: as §1

Fuc(a1-3)GlcNAc = molecular target: Fuc(a1-3)GlcNAc
In short: as §1

[8] = molecular target: Fuc(a1-3)[Gal(b1-4)]Glc6S
In short: as §1

[9] = molecular target: Fuc(a1-3)[Gal(b1-4)]GlcNAc
In short: as §1

[10] = molecular target: Fuc(a1-3)[Gal(b1-4)]GlcNAc(b1-2)Man
In short: as §1

[11] = molecular target: Fuc(a1-3)[Gal(b1-4)]GlcNAc(b1-2)Man(a1-3)[Fuc(a1-3)[Gal(b1-4)]GlcNAc(b1-2)Man(a1-6)]Man(b1-4)GlcNAc(b1-4)GlcNAc
In short: as §1

[12] = molecular target: Fuc(a1-3)[Gal(b1-4)]GlcNAc(b1-2)Man(a1-3)[Fuc(a1-3)[Gal(b1-4)]GlcNAc(b1-2)Man(a1-6)]Man(b1-4)GlcNAc(b1-4)[Fuc(a1-6)]GlcNAc
In short: as §1

[13] = molecular target: Fuc(a1-3)[Gal(b1-4)]GlcNAc(b1-2)Man(a1-6)[Gal(b1-4)GlcNAc(b1-2)Man(a1-3)]Man(b1-4)GlcNAc(b1-4)GlcNAc
In short: as §1

[14] = molecular target: Fuc(a1-3)[Gal(b1-4)]GlcNAc(b1-3)Gal(b1-3)[Fuc(a1-4)]GlcNAc
In short: as §1

[15] = molecular target: Fuc(a1-3)[Gal(b1-4)]GlcNAc(b1-3)Gal(b1-4)[Fuc(a1-3)]GlcNAc
In short: as §1

[16] = molecular target: Fuc(a1-3)[Gal(b1-4)]GlcNAc(b1-3)Gal(b1-4)[Fuc(a1-3)]GlcNAc(b1-3)Gal(b1-4)[Fuc(a1-3)]GlcNAc
In short: as §1

[17] = molecular target: Fuc(a1-3)[Gal(b1-4)]GlcNAc(b1-3)GalNAc
In short: as §1

[18] = molecular target: Fuc(a1-3)[Gal(b1-4)]GlcNAc(b1-4)Gal(b1-4)[Fuc(a1-3)]GlcNAc
In short: as §1

[19] = molecular target: Fuc(a1-3)[Gal(b1-4)]GlcNAc(b1-4)Gal(b1-4)[Fuc(a1-3)]GlcNAc(b1-4)Gal(b1-4)[Fuc(a1-3)]GlcNAc
In short: as §1

[20] = molecular target: Fuc(a1-3)[Gal(b1-4)]GlcNAc(b1-6)GalNAc
In short: as §1

[21] = molecular target: Fuc(a1-3)[Gal(b1-4)]GlcNAc(b1-6)[Gal(b1-3)GlcNAc(b1-3)]Gal(b1-4)Glc
In short: as §1

[22] = molecular target: Fuc(a1-3)[Gal(b1-4)]GlcNAc6S
In short: as §1

[23] = molecular target: Fuc(a1-3)[Gal3S(b1-4)]Glc
In short: as §1

[24] = molecular target: Fuc(a1-3)[Gal3S(b1-4)]Glc6S
In short: as §1

[25] = molecular target: Fuc(a1-3)[Gal3S(b1-4)]GlcNAc
In short: as §1

[26] = molecular target: Fuc(a1-3)[Gal3S(b1-4)]GlcNAc6S
In short: as §1

[27] = molecular target: Fuc(a1-3)[GalNAc(b1-4)]GlcNAc
In short: as §1

[28] = molecular target: Fuc(a1-3)[GalNAc(b1-4)]GlcNAc6S
In short: as §1

[29] = molecular target: Fuc(a1-3)[Neu5Ac(a2-3)]Gal(b1-4)GlcNAc(b1-3)GalNAc
In short: as §1

Fuc(a1-4)GlcNAc = molecular target: Fuc(a1-4)GlcNAc
In short: as §1

Fuc(b1-3)GlcNAc = molecular target: Fuc(b1-3)GlcNAc
In short: as §1

Gal(a1-2)Gal = molecular target: Gal(a1-2)Gal
In short: as §1

Gal(a1-3)Gal = molecular target: Gal(a1-3)Gal
In short: as §1

Gal(a1-3)Gal(b1-3)GlcNAc = molecular target: Gal(a1-3)Gal(b1-3)GlcNAc
In short: as §1

[30] = molecular target: Gal(a1-3)Gal(b1-3)GlcNAc(b1-2)Man
In short: as §1

[31] = molecular target: Gal(a1-3)Gal(b1-3)GlcNAc(b1-2)Man(a1-3)[Gal(a1-3)Gal(b1-3)GlcNAc(b1-2)Man(a1-6)]Man(b1-4)GlcNAc(b1-4)GlcNAc
In short: as §1

[32] = molecular target: Gal(a1-3)Gal(b1-3)GlcNAc(b1-3)GalNAc
In short: as §1

[33] = molecular target: Gal(a1-3)Gal(b1-3)GlcNAc(b1-6)GalNAc
In short: as §1

[34] = molecular target: Gal(a1-3)Gal(b1-3)[Fuc(a1-4)]GlcNAc(b1-2)Man(a1-3)[Gal(a1-3)Gal(b1-3)[Fuc(a1-4)]GlcNAc(b1-2)Man(a1-6)]Man(b1-4)GlcNAc(b1-4)GlcNAc
In short: as §1

Gal(a1-3)Gal(b1-4)Glc = molecular target: Gal(a1-3)Gal(b1-4)Glc
In short: as §1

Gal(a1-3)Gal(b1-4)GlcNAc = molecular target: Gal(a1-3)Gal(b1-4)GlcNAc
In short: as §1

[35] = molecular target: Gal(a1-3)Gal(b1-4)GlcNAc(b1-2)Man
In short: as §1

[36] = molecular target: Gal(a1-3)Gal(b1-4)GlcNAc(b1-2)Man(a1-3)[Gal(a1-3)Gal(b1-4)GlcNAc(b1-2)Man(a1-6)]Man(b1-4)GlcNAc(b1-4)GlcNAc
In short: as §1

[37] = molecular target: Gal(a1-3)Gal(b1-4)GlcNAc(b1-3)GalNAc
In short: as §1

B1: GNA (Galanthus nivalis), P30617 (protein)
chain: MAKASLLILAAIFLGVITPSCLSDNILYSGETLSTGEFLNYGSFVFIMQEDCNLVLYDVDKPIWATNTGGLSRSCFLSMQTDGNLVVYNPSNKPIWASNTGGQNGNYVCILQKDRNVVIYGTDRWATGTHTGLVGIPASPPSEKYPTAGKIKLVTAK
- glycan array binding signal (z-score) [1]: -0.155
- glycan array binding signal (z-score) [2]: -0.182
- glycan array binding signal (z-score) [3]: -0.175
- glycan array binding signal (z-score) [4]: -0.138
- glycan array binding signal (z-score) [5]: -0.117
- glycan array binding signal (z-score) [6]: -0.245
- glycan array binding signal (z-score) [7]: -0.188
- glycan array binding signal (z-score) (Fuc(a1-3)GlcNAc): -0.203
- glycan array binding signal (z-score) [8]: -0.095
- glycan array binding signal (z-score) [9]: -0.098
- glycan array binding signal (z-score) [10]: -0.173
- glycan array binding signal (z-score) [11]: -0.111
- glycan array binding signal (z-score) [12]: -0.141
- glycan array binding signal (z-score) [13]: -0.666
- glycan array binding signal (z-score) [14]: -0.219
- glycan array binding signal (z-score) [15]: -0.167
- glycan array binding signal (z-score) [16]: -0.176
- glycan array binding signal (z-score) [17]: -0.158
- glycan array binding signal (z-score) [18]: -0.127
- glycan array binding signal (z-score) [19]: 0.029
- glycan array binding signal (z-score) [20]: -0.159
- glycan array binding signal (z-score) [21]: -0.165
- glycan array binding signal (z-score) [22]: -0.106
- glycan array binding signal (z-score) [23]: -0.158
- glycan array binding signal (z-score) [24]: 0.067
- glycan array binding signal (z-score) [25]: -0.009
- glycan array binding signal (z-score) [26]: -0.007
- glycan array binding signal (z-score) [27]: -0.208
- glycan array binding signal (z-score) [28]: -0.171
- glycan array binding signal (z-score) [29]: 0.284
- glycan array binding signal (z-score) (Fuc(a1-4)GlcNAc): -0.063
- glycan array binding signal (z-score) (Fuc(b1-3)GlcNAc): -0.178
- glycan array binding signal (z-score) (Gal(a1-2)Gal): -0.158
- glycan array binding signal (z-score) (Gal(a1-3)Gal): -0.205
- glycan array binding signal (z-score) (Gal(a1-3)Gal(b1-3)GlcNAc): -0.23
- glycan array binding signal (z-score) [30]: -0.171
- glycan array binding signal (z-score) [31]: -0.111
- glycan array binding signal (z-score) [32]: -0.18
- glycan array binding signal (z-score) [33]: -0.172
- glycan array binding signal (z-score) [34]: 0.43
- glycan array binding signal (z-score) (Gal(a1-3)Gal(b1-4)Glc): -0.18
- glycan array binding signal (z-score) (Gal(a1-3)Gal(b1-4)GlcNAc): -0.263
- glycan array binding signal (z-score) [35]: -0.167
- glycan array binding signal (z-score) [36]: 2.17
- glycan array binding signal (z-score) [37]: -0.164
